Experimental data taken from the supplement of paper PMC11417369.
± gives the standard deviation of the averaged measurements. The list shows a part of the results.

Each sequence was assayed on PfAP2-EXP AP2 domain (GST-tagged) (assay: gcPBM binding intensity (ln(normalized median fluorescence intensity)); higher = stronger DNA binding).
Procedure, shortened: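 Binding intensity is defined as the maximum Masliner-normalised natural-log median intensity across replicate spots for either probe orientation. It was measured on an Agilent 4 × 180k array of primer-extended double-stranded 36-bp intergenic genomic probes and negative controls, to which GST-tagged P. falciparum DNA-binding domains made in E. coli were applied for 1 h in 1× PBS with 1% milk, 0.2 mg/ml BSA, 0.5% salmon testes DNA and 0.03% Triton X-100. Detection was by Alexa488 anti-GST antibody and scanning at 488 nm.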

Sequence	gcPBM binding intensity (ln)
AAAATACAGAAACACACACACACACCCATATATATA [CACACA_site3559]	8.74 ± 0.44
GTATTCATTCCTTGAGTGCAATTGCAATAAATAAAA	8.93 ± 0.028
CATATTAAGATGTGTACACATTTTTATTTTTTTTTT [CACACA_site4425]	8.43 ± 0.32
TAAAACAAAATGGTAACACACACATATATATATATA [CACACA_site8590]	10.1 ± 0.3
ATAGCATTTCACAAATGTACATAAAAAAATAAAAAT [XGTACX_site402]	8.98 ± 0.43
AAATGACGAAATAAAATCATAAATTAAAATAAATAA [CACACA_negctrl_site655]	8.46 ± 0.11
TCCTATCATTTATATTTTACTACATAATATTGATAA [GTGCAC_negctrl_site286]	8.51 ± 0.35
AAATGGAAATTAATATGTACATATTTATAAGTATGA [XGTACX_site1774]	8.71 ± 0.35
AATATATAAATATATATAAATAAATATATATATAAA [CACACA_negctrl_site49]	7.93 ± 0.22
TCTTTTCTTTTGTGTGTGCACATATAAGCATGAAAC [GTGCAC_site9910]	9.02 ± 0.13
ATGTTTCTATAGATTTGTACATATTTCATATGAATA [XGTACX_site1053]	8.89 ± 0.45
TTATTTTTTGTATGAACACACAACTTAATTATGATG [CACACA_site2448]	8.62 ± 0.26
TTTTTTAATTAATTACCTTTGAATGTGTATTAGGAC [GTGCAC_negctrl_site651]	8.49 ± 0.26
TTTTACAAATATTTCTGTACACATTCTCATATAATT [XGTACX_site1974]	8.88 ± 0.38
TAGCCCACATTTAATGGTACAGTGAGTATATATATG [XGTACX_site8044]	8.64 ± 0.38
ATGGAAATAAAAAAAAAAAAAAAAAAAAATATATAT [GTGCAC_negctrl_site67]	8.36 ± 0.33
TAATATATTTATAGAGCATGCAACGTAATATTATTA [TGCATGCA_site863]	9.86 ± 0.6
TACATAAAATACCATGCATGCTAGTAAAAAAAAAAA [TGCATGCA_site650]	8.91 ± 0.37
AAAATGCATTTGATGTGTACGCATTATAAAGAACAA [XGTACX_site4203]	9.12 ± 0.36
CACAAACAAAGACACACACACACACGCACAAAAATG [CACACA_site7193]	8.65 ± 0.48
CAAATAGCTAGCTGTGCACACAAACATATTTTCCAA [CACACA_site879]	8.7 ± 0.37
TATGATGAGATAACAAAAGTTGTACTTTTTTTTTTT [CACACA_negctrl_site1172]	8.3 ± 0.19

Sequence	gcPBM binding intensity (ln)
ATGATATGGATAAATACACACAATATAATAATGTCT [CACACA_site1433]	8.6 ± 0.46
CATATATACTCATACACACACACACCGACACAGACA [CACACA_site5026]	8.79 ± 0.56
ATATTTTTTAGGGTCACACATACTTATTATATAAAT [CACACA_site4926]	8.65 ± 0.37
AATATTTAACACCTTATACACACTTTCTTCCTTTTT [CACACA_site785]	8.82 ± 0.44
TAAAAAATTATAAAATGTACATAAAAAAAAAAAAAA [XGTACX_site3376]	8.38 ± 0.54
ATCCCAGTAATATATAGTACATAACTATAAGAGAAT [XGTACX_site6909]	8.72 ± 0.54
AAAGCACGCAAGAATACACACAAATATTATAAAAAA [CACACA_site6206]	8.48 ± 0.52
CTGAAGAAACTACAACGTACAAAATATGTATATATT [XGTACX_site3779]	8.55 ± 0.4
AGGAAAACAAAAGATGCATGCTAATTTTCCTCGCGT [TGCATGCA_site627]	8.97 ± 0.56
TTTATTAATTAAACCATACACACATAATTTTTTTAT [CACACA_site842]	8.34 ± 0.47
AAACGTGCGTATATGTGTACGCATATATATATATAT [XGTACX_site5252]	10.2 ± 0.75
AAAATTAATAAATGAGAAAAAAGGATGAATAATGAG [CACACA_negctrl_site1614]	8.96 ± 0.34
AGAAAAAAAATGTATACACACAAATATAAAGAAGGA [CACACA_site3806]	8.99 ± 0.36
AAAACTATATTAATGTGTACACATCAAAATATTAAT [XGTACX_site6767]	8.65 ± 0.13
CAAAATTATCAGAATCGTACATTTTTAACATATAAT [XGTACX_site7909]	8.22 ± 0.37
TTACAAAACACTTATACACACATATATATATATATA [CACACA_site2716]	10.1 ± 0.38
TAATATATTAAAAATAGTACATAAGAAAAATAAGTA [XGTACX_site7957]	8.88 ± 0.41
TTTCTAAGAAAAAAAAAAAAAAAAAAAAAGATACAA [GTGCAC_negctrl_site525]	8.18 ± 0.54
AGGAAGGAAATAAATCAACACACATATATTATATAT [CACACA_site8678]	8.6 ± 0.54
ATATTTATTTTAATTTTTCTATATAAACTATTATGA [CACACA_negctrl_site739]	8.25 ± 0.28
TATATATATTATATATGTACATATTGTATATTTTTG [XGTACX_site4564]	8.56 ± 0.099
TATGTAAAATGTGTTTGTACTTATTTATTATATAAA [XGTACX_site2816]	8.32 ± 0.19
